Measurements taken from PubChem BioAssay AID686978 (National Center for Advancing Translational Sciences (NCATS), 2013).
Screen size: about 420,000 compounds; about 64,000 (15%) were called active. This list was built around the results that the source calls inconclusive (neither active nor inactive); the mix of calls is not that of the screen. Calls follow the shape of the dose curve; as a rule, active = well fitted inhibition curve with a large enough effect; inconclusive = small, poorly fitted or top-dose-only effect; inactive = flat fitted curve, though single readings scatter. No potency is given beside an inconclusive call; the fits are too rough.

Assay: qHTS for Inhibitors of human tyrosyl-DNA phosphodiesterase 1 (TDP1): qHTS in cells in absence of CPT; also: nearly all actives have a fitted effect of over 55% in size
Conditions: DT40 Tdp1-/- hTDP1 cells, no CPT, ATP luminescence, 48 h; activity change, negative = growth inhibition: at 46.2 µM (top of the series) unless noted
In short: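 Chicken DT40 Tdp1-/- cells complemented with human TDP1, screened without camptothecin (DMSO vehicle only), 400 cells/well. Compounds pin-transferred, cells incubated at 37 °C for at least 48 hr. Growth read as ATP-dependent luminescence (CellTiter-Glo, 30 min at RT).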
% is scaled to controls: 0 for no effect and ±100 for the full control effect; potency is read from the fitted curve at half-maximal effect; tags tell the direction and shape of the fitted curve.

Compound	Potency	activity change, negative = growth inhibition
Cc1noc(C)c1CSc1nc2ccccc2c(=O)n1-c1ccc(Cl)cc1	active: 14.6 µM	
COc1ccccc1Cc1c(-c2ccco2)nc2cc(C)c(Br)c(C)n12	active: 23.1 µM	
O=C(c1ccc(F)cc1)N1CCN(c2cc(N3CCCCC3)c(F)cc2[N+](=O)[O-])CC1	inconclusive [inhibitor, single point]	
Cc1ccc(C)c(Oc2coc3cc(OC(=O)c4cccs4)ccc3c2=O)c1	inconclusive [inhibitor, single point]	
CCOC(=O)c1[nH]c2ccccc2c1NC(=S)Nc1ccccc1C		inconclusive: -33.5% [inhibitor]
Cc1nn(-c2ccccc2)c(N2CCCC2)c1/C=N/NC(=O)c1cc(-c2ccccn2)nc2ccccc12	active: 11.6 µM	
O=C(Nc1ccc(S(=O)(=O)N2CCN(c3ccccc3)CC2)cc1)c1cccs1	inconclusive [inhibitor, single point]	
Cc1cc(Cl)c(C)c(S(=O)(=O)N2CCN(C(=O)C3CCCO3)CC2)c1Cl (stereo not given)	inconclusive [inhibitor, single point]	
O=C(NCc1ccco1)c1ccccc1NS(=O)(=O)c1ccc(Br)s1	inconclusive [inhibitor, single point]	
CCOc1ccccc1NC(=O)CCNS(=O)(=O)c1ccc2c(c1)CCN2C(=O)C1CC1	inconclusive [inhibitor, partial curve, poor fit]	
Cc1ccc(NC(=S)N(CCN2CCCCC2)Cc2ccco2)cc1Cl	inconclusive [inhibitor, single point]	
Cc1cccc(N/N=C(\C(N)=O)C2=NC(C)(C)Cc3ccccc32)c1	active: 25.9 µM	
COc1cccc(OC)c1C(=O)Nc1cccc(-n2cnnn2)c1	inactive	
Cc1cccc(C(=O)NN/C=C/C(=O)c2ccccc2)c1	active: 25.9 µM	
CCN(CC)CC(=O)Nc1c(C)cc(C(C)(C)C)cc1C	inconclusive [inhibitor, single point]	
CCOCCCNC(=O)c1c[nH]c2ccc(OCC)cc2c1=O		inconclusive: -31% [inhibitor]
CCCC(=O)N1CCCC1(C)C(=O)NCc1ccc(SC)cc1 (stereo not given)	inactive	
O=C(CNC(=O)c1ccc(Br)o1)NCc1ccc(Cl)cc1Cl	inactive	
CCOC(=O)c1c(C)sc(Sc2ccc(Cl)cc2[N+](=O)[O-])c1OC	inconclusive [inhibitor, single point]	
Cc1cc2nnn(-c3nnc(-c4ccccc4)c4ccccc34)c2cc1C	inconclusive [inhibitor, single point]	
Cc1nnc(N2CCCC(C(=O)NCc3ccc(OC(C)C)cc3)C2)c2nn(-c3ccccc3)c(C)c12 (stereo not given)	inconclusive [inhibitor, single point]	
CCN(C[C@H]1N[C@@](CC)(C(=O)OC)[C@H]2C(=O)N(Cc3ccccc3)C(=O)[C@@H]12)C(=O)Nc1ccc(C)cc1	inconclusive [inhibitor, single point]	
CCCCOc1ccc(/C=C/C(=O)NC2=Nc3ccccc3NC(C)=C2C(=O)OCC)cc1OC	inconclusive [inhibitor, single point]	
COc1ccc(N(CC(O)Cn2cnc3ccccc32)S(=O)(=O)c2ccc(C)cc2)cc1 (stereo not given)		inconclusive: -31.4% [inhibitor]

Compound	Potency	activity change, negative = growth inhibition
O=c1oc2ccccc2c(O)c1Sc1ccc(Cl)cc1	inconclusive [inhibitor, partial curve]	
CCOc1ccccc1NC(=S)NC(=O)c1ccco1	inactive	
CC(C)(C)NS(=O)(=O)c1ccc(C(=O)Nc2ccc3c(c2)OCO3)cc1	inactive	
O=C(CSc1nnc2c(n1)[nH]c1ccc(F)cc12)N1CCOCC1	inactive	
C[C@H](NC(=O)CC[C@H]1O[C@@H](n2ccc(=O)[nH]c2=O)[C@H](O)[C@@H]1O)c1cccc2ccccc12	inactive	
CCOC(=O)C1CCCN(CCSc2ccc(C)cc2)C1 (stereo not given)	inconclusive [inhibitor, single point]	
O=C1CC(N2CCN(Cc3ccc4c(c3)OCO4)CC2)C(=O)N1CCc1ccccc1 (stereo not given)	inconclusive [inhibitor, single point]	
COc1ccc(-c2cn(Cc3ccc([N+](=O)[O-])cc3)nn2)cc1	inconclusive [inhibitor, single point]	
CC(NC(=O)NC1CCCCC1)c1ccccc1 (stereo not given)	inconclusive [inhibitor, single point]	
COc1cccc(N=CC2=C(O)CC(C)(C)CC2=O)c1	inconclusive [inhibitor, full curve]	
COc1ccc(NC(=O)CN(c2ccc(C)cc2)S(=O)(=O)c2cccs2)cc1OC	inactive	
Cc1cc(NC(=O)C2CCN(S(=O)(=O)c3cnc[nH]3)CC2)ccc1Br		inconclusive: -30.7% [inhibitor]
CCCCCCc1nc2c(=O)[nH]c3ccccc3c2o1	inactive	
O=C(NCCCCCCNC(=O)c1ccncc1)c1ccncc1	inactive	
COc1ccc(CNc2ncnc3ccc(-c4ccccc4OC)cc23)c(OC)c1	inconclusive [inhibitor, single point]	
CN(Cc1ccccc1)C(=O)CN1C(=O)c2ccccc2S1(=O)=O	inactive	
N#Cc1cccc(-c2nc(NCc3ccccc3)c3ccccc3n2)c1	inconclusive [inhibitor, full curve, poor fit]	
COc1ccc(CCNC(=O)CSc2nn(-c3ccccc3)c(=S)s2)cc1OC	inconclusive [inhibitor, single point]	
Cc1noc(C)c1-c1cc(Nc2ccc(F)cc2)ncn1	inactive	
CC(C)c1ccc(NC(=O)C2C3C=CC(CC3)C2C(=O)O)cc1 (stereo not given)	inconclusive [inhibitor, partial curve]	
OC[C@@H]1CN(Cc2ccc(F)cc2)C[C@H](n2cnc3c(NC4CCCC4)ncnc32)O1	inconclusive [inhibitor, single point]	
Cc1ccc(OCCCC(=O)Nc2sc3c(c2C(N)=O)CCCC3)cc1	inconclusive [inhibitor, single point]	
O=C(/C=C/c1ccc(F)cc1)NC(Cc1c[nH]c2ccccc12)C(=O)O (stereo not given)	inactive	
O=C1[C@H]2[C@H](C=CC[C@H]2C(=O)N2CCN(c3ccccc3)CC2)CCN1Cc1ccccc1	active: 14.1 µM	

Compound	Potency	activity change, negative = growth inhibition
CCCc1ccc(OCc2ccccc2)c2c(=O)cc(C(=O)OCC)oc12	inactive	
CCCCN(C)C(=O)Cn1ncc2c([nH]c3ccc(C)cc32)c1=O	inconclusive [inhibitor, single point]	
COc1ccc(CNC(=O)Nc2ccc([N+](=O)[O-])cc2)cc1	inconclusive [inhibitor, single point]	
CCOc1cc(/C=N/NC(=O)Cn2nc([N+](=O)[O-])cc2C)cc(Br)c1OCc1ccccc1F	inconclusive [inhibitor, single point]	
COc1ccc(-c2ccc3c(c2)O/C(=C\c2ccsc2)C3=O)cn1	inconclusive [inhibitor, single point]	
O=C1CSC(c2cn(-c3ccccc3)nc2-c2ccc3c(c2)OCCO3)N1CCN1CCOCC1 (stereo not given)	inconclusive [inhibitor, single point]	
CCOCCCNC(=O)C(NC(=O)c1cnccn1)c1ccc(C)cc1 (stereo not given)	inactive	
Oc1ccc(/C=N/Nc2nn3cnnc3c3ccccc23)cc1	inconclusive [inhibitor, single point]	
O=C(CCN1CCN(c2ccccc2)CC1)N/N=C/c1ccc([N+](=O)[O-])o1	inconclusive [inhibitor, single point]	
OCCCNc1ncnc2c1ncn2[C@H]1CN(Cc2ccc(Cl)cc2)C[C@@H](CO)O1	inactive	
Cc1cc(C)cc(NC(=O)c2cccc(N3CCCS3(=O)=O)c2)c1	inconclusive [inhibitor, single point]	
Cc1ccc(-n2c(=O)c3sccc3n(CC(=O)NC3CCCCC3)c2=O)cc1	inactive	
CC(=O)c1cccc(S(=O)(=O)NC2CCSc3ccccc32)c1 (stereo not given)	active: 11.6 µM	
O=C(CSc1nnc(-c2ccccn2)n1Cc1ccco1)c1ccccc1	inconclusive [inhibitor, single point]	
O=C(/C=C/c1cccnc1)c1ccccc1O	inconclusive [inhibitor, partial curve]	
CCCn1c(CC)nc([N+](=O)[O-])c1Sc1ccc(F)cc1	inconclusive [inhibitor, single point]	
CCCCNC(=O)C1C(c2ccc(C(F)(F)F)cc2)=Nc2ccccc2N1C(=O)c1ccc2nc(C)[nH]c2c1 (stereo not given)	inconclusive [inhibitor, single point]	
COc1cccc(NS(=O)(=O)c2cc3c(cc2C)N(C)CCO3)c1	inconclusive [inhibitor, single point]	
CC(C)Oc1ccc(OCCNC2CCCC2)cc1	inactive	
CCCCn1nc2cc(C(=O)NCC34CC5CC(CC(C5)C3)C4)ccc2c1OCC	active: 16.4 µM	
CCCCCCCc1n[nH]c(=S)n1Cc1ccccc1	inconclusive [inhibitor, single point]	
CSCC[C@H](NC(=O)C(C)(C)Oc1ccc(Cl)cc1)c1nc2ccccc2[nH]1	inconclusive [inhibitor, single point]	
